Results from PubChem BioAssay AID2147 (National Center for Advancing Translational Sciences (NCATS), 2009).
Hit rate of the full screen: of about 230,000 compounds, about 3,600 (1.6%) were called active. The shares of active, inactive and inconclusive entries below differ from those in the screen. Calls come from the whole dose curve; as a rule, active = well fitted inhibition curve with a large enough effect (not every such curve was filed as active); inconclusive = small, poorly fitted or top-dose-only effect, or another doubt; inactive = no such curve, though single readings can be large or run the other way. A potency beside an inconclusive call is a rough fit, not a confirmed value.
Note: nearly all actives have a fitted effect of over 50% in size.
Potency is the fitted concentration of half-maximal effect; tags give direction and shape of the fitted curve.
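Throughout, for activity change, negative = inhibition: 0% = wells with enzyme and -100% = buffer wells without enzyme.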

Each molecule was assayed against Lysine-specific demethylase 4E (Homo sapiens) (UniProt B2RXH2) (assay: qHTS Assay for Inhibitors of Human Jumonji Domain Containing 2E (JMJD2E)). Details: JMJD2E catalytic domain, FDH-coupled NADH fluorescence (FDH is formaldehyde dehydrogenase); series mostly up to 57.1 µM; activity change, negative = inhibition: at the top concentration.
Sequence of UniProt B2RXH2 (B2RXH2 whole entry, looked up, the tested form may be a part): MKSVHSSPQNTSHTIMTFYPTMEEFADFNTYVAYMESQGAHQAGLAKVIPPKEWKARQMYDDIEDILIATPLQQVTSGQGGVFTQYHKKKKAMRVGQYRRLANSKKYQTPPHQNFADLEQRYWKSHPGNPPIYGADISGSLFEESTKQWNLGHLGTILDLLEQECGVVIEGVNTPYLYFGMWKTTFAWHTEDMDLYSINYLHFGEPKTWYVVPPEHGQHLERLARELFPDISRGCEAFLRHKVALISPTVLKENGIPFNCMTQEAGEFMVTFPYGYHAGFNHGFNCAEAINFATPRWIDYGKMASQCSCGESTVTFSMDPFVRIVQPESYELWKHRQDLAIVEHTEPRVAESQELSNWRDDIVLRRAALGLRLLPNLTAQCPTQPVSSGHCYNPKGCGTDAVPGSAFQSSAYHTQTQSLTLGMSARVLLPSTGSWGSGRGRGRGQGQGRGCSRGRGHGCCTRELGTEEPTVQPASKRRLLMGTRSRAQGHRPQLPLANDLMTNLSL
In the case of `COC(=O)c1sccc1NC(=O)c1cc2c(s1)CCCC2`, the Potency is reported as inconclusive: 31.6 µM [inhibitor, partial curve].
For `Cc1cc(-c2csc(NC(=O)c3ccc(=O)[nH]c3)n2)c(C)n1Cc1ccccc1`, the Potency was inconclusive: 22.4 µM [inhibitor, single point].
For `O=C(Nc1nnc(-c2ccncc2)s1)Nc1ccccc1F`, the Potency was inconclusive: 15.8 µM [inhibitor, partial curve].
In the case of `O=C(Nc1ccc(N2CCOCC2)cc1)c1cc2c(s1)CCCCC2`, the “activity change, negative = inhibition” value is reported as inactive: -22.2%.
For `O=c1[nH]cc(N2CCCCCC2)c(=O)[nH]1`, the “activity change, negative = inhibition” value was inactive: -6.03%.
`CCOC(=O)C(=O)N=Nc1c(O)n(C)c2ccccc12` was tested, and the “activity change, negative = inhibition” value was inactive: 9.58%.
With `Fc1ccc(Nc2nc(NCc3ccco3)c3ccccc3n2)cc1` the Potency was inconclusive: 28.2 µM [inhibitor, partial curve].
With `Cc1nc(SCC(=O)NCc2ccco2)nc(C)c1C` the “activity change, negative = inhibition” value was inactive: 3.67%.
`COc1ccc(-c2nc(C#N)c(NCc3ccccc3Cl)o2)cc1OC` was tested, and the Potency was inconclusive: 20 µM [inhibitor, partial curve].
`OCCCNC(=S)Nc1ccc2nc(-c3ccccn3)c(-c3ccccn3)nc2c1` was tested, and the Potency was inconclusive: 39.8 µM [inhibitor, single point].
`Cc1cc(C)n(CC(O)Cn2c3ccc(Br)cc3c3cc(Br)ccc32)c(=O)n1` (centres undefined) was tested, and the “activity change, negative = inhibition” value was inactive: -6.16%.
`O=C(Nc1nc2ccccc2n1CCN1CCOCC1)c1cn(-c2ccccc2)nc1-c1ccccc1` was tested, and the Potency was active: 25.1 µM.
`COc1ccc(CNc2nc(NCc3ccc(OC)cc3)n(C(=O)c3ccncc3)n2)cc1` was tested, and the Potency was inconclusive: 22.4 µM [inhibitor, single point].
With `Cc1cccc(N2CCN(c3nc4ccc(Cl)cc4n4cnnc34)CC2)c1C` the Potency was inconclusive: 3.16 µM [inhibitor, partial curve].
For `Oc1ccc(-c2cn3ccccc3n2)cc1`, the Potency was inconclusive: 31.6 µM [inhibitor, partial curve].
`O=C(O)CC1S/C(=N/N=C/C=C/c2ccccc2)NC1=O` (centres undefined) was tested, and the Potency was inconclusive: 39.8 µM [inhibitor, single point].
`CCOC(=O)/C=C1\NC(C)(C)Cc2cc(OC)c(OC)cc21` was tested, and the Potency was inconclusive: 14.1 µM [inhibitor, partial curve].
In the case of `CCCCCC(=O)Nc1cccc(C2=NOC3(C2)C[C@H](C(N)=O)N(C(=O)c2ccccc2)C3)c1` (some centres undefined), the “activity change, negative = inhibition” value is reported as inactive: 4.44%.
For `O=C(CSc1oc(-c2cccs2)nc1S(=O)(=O)c1ccccc1)NC1CCCCC1`, the Potency was inconclusive: 31.6 µM [inhibitor, partial curve].
`N#Cc1c(N)nc(N2CCCC2)c(C#N)c1-c1ccc(Cl)cc1` was tested, and the Potency was inconclusive: 35.5 µM [inhibitor, single point].
For `Clc1ccc2nc(N3CCNCC3)nc(-c3ccccc3)c2c1`, the Potency was inconclusive: 31.6 µM [inhibitor, partial curve].
With `CCOc1cccc2cc(C(=O)NCCC3=CCCCC3)c(=O)oc12` the Potency was inconclusive: 31.6 µM [inhibitor, single point].
In the case of `O=C(NC1CCCCC1)c1ccc2c(=O)n(CC3CCCO3)c(=O)[nH]c2c1` (centres undefined), the Potency is reported as inconclusive: 20 µM [inhibitor, single point].
In the case of `c1nc(N2CCOCC2)c2c3c(sc2n1)CCCC3`, the “activity change, negative = inhibition” value is reported as inactive: -15.9%.
With `COc1ccc2nc(NCCNC(=S)NCCCN3CCOCC3)c(C#N)cc2c1` the Potency was inconclusive: 25.1 µM [inhibitor, partial curve].
`Cc1cccc(NC(=O)CSc2nc(NS(=O)(=O)c3ccccc3)cc(=O)[nH]2)c1` was tested, and the Potency was inconclusive: 35.5 µM [inhibitor, single point].
With `O=C(COC(=O)c1cccs1)NCCC1=CCCCC1` the “activity change, negative = inhibition” value was inactive: 8.8%.
With `OCC1NCC(O)C(O)C1O` (centres undefined) the “activity change, negative = inhibition” value was inactive: 2.4%.
With `CN1CCN(C(=O)c2ccc(COc3ccc(C(C)(C)C)cc3)o2)CC1` the “activity change, negative = inhibition” value was inactive: -0.514%.
`COC(CNC(=O)c1ccc2c3c(onc13)-c1ccccc1C2=O)OC` was tested, and the “activity change, negative = inhibition” value was inactive: -22.1%.
`CCOC(=O)c1c(-c2ccccc2)n(C)c2ccc(O)cc12` was tested, and the Potency was inconclusive: 31.6 µM [inhibitor, partial curve].
For `Cc1cc(=O)oc2ccc(OCC(=O)NCc3ccco3)cc12`, the Potency was inconclusive: 35.5 µM [inhibitor, single point].
`O=C(Nc1cccc(S(=O)(=O)N2CCOCC2)c1)[C@@H]1CCCN1S(=O)(=O)c1ccc(Cl)cc1` was tested, and the “activity change, negative = inhibition” value was inactive: -0.85%.
With `CCOC(=O)c1ccc(NC(=O)CC2SC3=NCCN3C2=O)cc1` (centres undefined) the Potency was inconclusive: 39.8 µM [inhibitor, single point].
`CN(C)c1ccc(/C=N/NC(=S)NCc2ccco2)cc1` was tested, and the Potency was inconclusive: 31.6 µM [inhibitor, partial curve].
`CCOC(=O)c1oc2nc(C(C)C)c3c(c2c1N)CCC3` was tested, and the Potency was inconclusive: 28.2 µM [inhibitor, partial curve].
With `CCCn1c(=N)c(C#N)cc2c(=O)n3cccc(C)c3nc21` the Potency was inconclusive: 3.16 µM [inhibitor, partial curve].
With `O=C(NCC1CCCCC1)C1CCCN(C(=O)NC2CCCCC2)C1` (centres undefined) the Potency was inconclusive: 39.8 µM [inhibitor, single point].
In the case of `O=S(=O)(NCCCCCNS(=O)(=O)c1ccccc1)c1ccccc1`, the Potency is reported as inconclusive: 0.0562 µM [inhibitor, full curve, poor fit].
`NC(=O)SCC(=O)Nc1ccc(Cl)cc1` was tested, and the “activity change, negative = inhibition” value was inactive: 2.4%.
In the case of `O=C(CSc1ncn[nH]1)N1N=C(c2ccc(Cl)cc2)CC1c1ccco1` (centres undefined), the Potency is reported as inconclusive: 7.08 µM [inhibitor, single point].
With `Cc1ccc(C(=O)Oc2cccnc2)cc1[N+](=O)[O-]` the “activity change, negative = inhibition” value was inactive: 5.38%.
`CCOC(=O)C1=C(C)NC(=O)NC1c1ccc([N+](=O)[O-])o1` (centres undefined) was tested, and the “activity change, negative = inhibition” value was inactive: -2.5%.
In the case of `O=C(OCC(=O)N1CCN(c2ccccc2)CC1)c1cnc(Cl)c(Cl)c1`, the “activity change, negative = inhibition” value is reported as inactive: 0.671%.
`Cc1ccc(C2=Nc3ccccc3SC(c3cccc([N+](=O)[O-])c3)C2)cc1` (centres undefined) was tested, and the Potency was inconclusive: 17.8 µM [inhibitor, partial curve].
For `COc1ccc(OC)c(/C=N/NC(=O)c2[nH]nc3c2CCc2ccccc2-3)c1`, the Potency was inconclusive: 31.6 µM [inhibitor, partial curve].
With `COC(=O)C1=C(C(=O)OC)[C@@H]2N(Cc3ccccc3)c3ccccc3[C@@]23C[C@@H](C(=O)OC)N(C(=O)C2CCC2)C3=N1` the activity change, negative = inhibition was inactive: 5.11% [at 11.4 µM].
With `COCCNc1ccc([N+](=O)[O-])cc1C(=O)Nc1cccc(C)n1` the Potency was inconclusive: 20 µM [inhibitor, single point].
With `C/C(=C\C(=O)c1ccc(C)o1)Nc1ccc(C(=O)O)cc1C` the Potency was inconclusive: 39.8 µM [inhibitor, single point].
With `COc1cc(CCCN2C(=S)NC[C@@H]2c2ccccc2)cc(OC)c1OC` the “activity change, negative = inhibition” value was inactive: 5.73%.
`COc1ccc(N2CCN(C(=O)c3ccc(C)cc3)CC2)c([N+](=O)[O-])c1` was tested, and the “activity change, negative = inhibition” value was inactive: 6.01%.
With `CC1CC(C)CN(S(=O)(=O)c2ccc(NN)nc2)C1` (centres undefined) the Potency was inconclusive: 39.8 µM [inhibitor, single point].
With `CCC(C)(C)n1nnnc1C(c1ccc(O)cc1)N1CCc2ccccc2C1` (centres undefined) the “activity change, negative = inhibition” value was inactive: -5.97%.
With `COc1ccc(-c2cn3cc(C)ccc3n2)cc1OC` the Potency was inconclusive: 28.2 µM [inhibitor, partial curve].
`N#Cc1c2n(c3c(-c4ccccc4)ncnc13)CCC2` was tested, and the Potency was inconclusive: 31.6 µM [inhibitor, partial curve].
For `COC(=O)c1cc(=O)c2ccc(OC)cc2o1`, the Potency was inconclusive: 39.8 µM [inhibitor, single point].
With `Cc1ccc2[nH]c3c(c2c1)CN(C(=O)CN1CCN(Cc2ccc4c(c2)OCO4)CC1)CC3` the “activity change, negative = inhibition” value was inactive: -7.99%.
For `CCSC1=NC2(CCCCC2)Nc2sc3c(c21)CCCC3`, the Potency was inconclusive: 39.8 µM [inhibitor, single point].
For `COc1cc(/C=C\C(=O)NCc2ccc3c(c2)cc(C)n3C)cc(OC)c1OC`, the Potency was inconclusive: 28.2 µM [inhibitor, single point].
For `O=C(O)C(Cc1cn[nH]n1)=NO`, the Potency was inconclusive: 39.8 µM [inhibitor, single point].
With `Cc1ccc(OCCC(=O)Nc2ccc(F)c(F)c2)cc1` the “activity change, negative = inhibition” value was inactive: 1.75%.
In the case of `Oc1c(CN2CCCCC2)cc(Br)c2cccnc12`, the Potency is reported as inconclusive: 31.6 µM [inhibitor, single point].
With `O=C(NCC1CCCO1)C1CCN(S(=O)(=O)Cc2ccccc2)CC1` (centres undefined) the “activity change, negative = inhibition” value was inactive: 10.6%.
With `Cc1nnc(SCC(=O)NCCN2C(=O)CSC2=O)n1-c1ccccc1` the “activity change, negative = inhibition” value was inactive: 0.795%.
With `O=C(NN1CCOCC1)NC12CC3CC(CC(C3)C1)C2` the “activity change, negative = inhibition” value was inactive: -2.57%.
For `CCC(C)(C)NC(=O)c1ccc2c(c1)S(=O)(=O)c1ccccc1C2=O`, the “activity change, negative = inhibition” value was inactive: -3.22%.
In the case of `CCc1ccc(/C=C2\SC(=S)N(CCC(=O)N3CCN(C)CC3)C2=O)cc1`, the “activity change, negative = inhibition” value is reported as inactive: -4.15%.
With `CCC(=O)N(Cc1cc2ccccc2[nH]c1=O)c1ccc(OC)cc1` the Potency was inconclusive: 22.4 µM [inhibitor, single point].
In the case of `COc1ccc(C(=O)C2C3C4COC(O4)C(=O)C3C3C=Cc4ccccc4N32)c(OC)c1` (centres undefined), the Potency is reported as inconclusive: 8.91 µM [inhibitor, full curve].
In the case of `CS(=O)(=O)N(Cc1ccc(C(=O)NN=C2CCCC2)cc1)c1ccccc1`, the “activity change, negative = inhibition” value is reported as inactive: 5.34%.
With `COc1ccccc1-c1c(C)oc2c(CN3CCN(C)CC3)c(O)ccc2c1=O` the Potency was inconclusive: 31.6 µM [inhibitor, partial curve].
For `COc1ccc2nc(C)c(C(=O)NN)cc2c1`, the Potency was inconclusive: 35.5 µM [inhibitor, single point].
`Cc1ccc(C(=O)Nn2cnc3scc(-c4cccs4)c3c2=O)c(O)c1` was tested, and the Potency was inconclusive: 35.5 µM [inhibitor, single point].
With `COc1ccccc1Nc1nc(N)nc(CN2CCCCCC2)n1` the Potency was inconclusive: 39.8 µM [inhibitor, single point].
